Reference: PubChem BioAssay AID445 (National Center for Advancing Translational Sciences (NCATS), 2006)
Screen size: about 110,000 compounds; about 40 (0.04%) were called active. Inconclusive means that the source gave no clear call. Such entries were picked first, then a sample of the others. The call rests on the fitted dose curve; in most records, active means well fitted curve in the direction sought with a large enough effect in the signal ratio (not every such curve was filed as active); inconclusive means small, poorly fitted or top-dose-only effect, or a change in a side signal; inactive means flat fitted curve, though single readings scatter; the % refers to the signal ratio. A potency beside an inconclusive call is a rough fit, not a confirmed value.

Test: IkB Signaling;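 on IkBa stabilization activation: 0% = basal untreated cells and 100% = reference inhibitor full response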
Settings: ABC-DLBCL IkBa-CBG/CBR dual luciferase ratio (green luciferase fused to IkBa over red control in OCI-Ly3 lymphoma cells), 4 h; IkBa stabilization activation: at 57.1 µM (top of the series), scaled: untreated 0%, proteasome inhibitor 100% unless noted
Outline: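 In this assay, an IκBα–CBG68 fusion accumulates when IKK-driven degradation is blocked; native CBR normalizes for cell number. OCI-Ly3 cells were treated 4 h with compound and doxycycline, then green and red light read after Chroma-Glo addition.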
Potency means the concentration at half of the fitted maximal effect.

Structure (SMILES) | IkBa stabilization activation | Potency
Cc1cc(N2CCN(C(=O)c3ccco3)CC2)nc(-c2ccccc2)n1 | inconclusive: 0.479% [signal inhibitor] | –
Cn1c(C(=O)NCC2CCCO2)cc2c(=O)n3ccccc3nc21 (stereo not given) | inactive | –
O=C(Nc1ccc(Cl)cc1Cl)c1cc(S(=O)(=O)N2CCCCCC2)ccc1F | inconclusive: -2.69% [signal inhibitor] | –
Cc1cc(C)cc(C(=O)n2nc(C)c(S(=O)(=O)N3CCCCCC3)c2C)c1 | inconclusive: 11.3% [signal inhibitor] | –
CCCCS(=O)(=O)c1oc(-c2cccs2)nc1S(=O)(=O)c1ccc(F)cc1 | inconclusive: -3.32% [signal inhibitor] | –
O=C1CC(c2cc(F)cc(F)c2)c2cc3c(cc2N1)OCO3 (stereo not given) | inconclusive: 0.911% [signal inhibitor] | –
CCN(C(=O)CSc1nnc(Cn2nnc3ccccc32)o1)c1nc(-c2ccccc2)cs1 | inconclusive: 6.82% [signal inhibitor] | –
CCCOc1ccc(NC(=O)CC2C(=O)N(c3ccc(C)cc3)C(=O)N2CCc2ccncc2)cc1 (stereo not given) | inconclusive: -1.25% [signal inhibitor] | –
COc1ccc(C(=O)c2ccc(OC)c(N)c2)cc1N | inconclusive: 11% [signal activator] | –
CCCCc1nn2c(=O)cc(COC(=O)c3ccccc3NC(=O)c3cccs3)nc2s1 | inactive | –
O=C(CCCN1C(=O)c2ccccc2C1=O)N1CCN(c2ccccn2)CC1 | inactive | –
COC(=O)c1ccccc1NC(=O)c1cnn(-c2ccc(F)cc2)c1-n1cccc1 | inactive | –
Cc1ccc(CN(C(=O)COc2ccccc2[N+](=O)[O-])c2ccccn2)cc1 | inconclusive: 5.22% [signal inhibitor] | –
O=C(NCc1ccccc1Cl)C1CCN(C(=O)N2CCOc3ccccc32)CC1 | inconclusive: 1.59% [signal inhibitor] | –
Cc1cccc(OCC(=O)NCCc2nc3ccccc3[nH]2)c1C | inactive | –
Nc1nc(N)c2nc(CNc3ccc(C(=O)N[C@H](CCC(=O)O)C(=O)O)cc3)cnc2n1 | – | inconclusive: 31.6 µM [rising, partial curve, poor fit]
[O-][N+]1=c2ccc(Nc3ccccc3)cc2=NC12CCCCC2 | – | inconclusive: 15.8 µM [signal inhibitor, partial curve]
CCOc1ccc(-n2nc(CO)c(C(=O)NCc3ccccn3)n2)cc1 | inactive | –
O=C(Nc1ccccn1)c1c(O)c2cccc3c2n(c1=O)CCC3 | inactive | –
O=c1c2ccccc2nc(SCc2nnc(-c3ccccc3)o2)n1-c1ccc(F)cc1F | inactive | –
CCN(CC)S(=O)(=O)c1ccc2c(c1)N(CC(=O)Nc1ccc(OC)cc1)C(=O)CS2 | inactive | –
Cc1ccccc1CNC(=O)c1oc2c(c1C)-c1nn(Cc3ccc(Cl)cc3)cc1CC2 | inconclusive: -0.257% [signal inhibitor] | –
Oc1cc(O)c2c(c1)O[C@@H](c1ccc(O)c(O)c1)[C@H](O[C@@]1(c3cc(O)c(O)c(O)c3)Oc3cc(O)cc(O)c3[C@H](O)[C@@H]1O)C2 | inactive: 2.09% [at 11.4 µM, scaled: untreated 0%, proteasome inhibitor 100%] | –

Structure (SMILES) | IkBa stabilization activation | Potency
Cc1ccc(-n2ncc3c(N(C)C)ncnc32)cc1Cl | inactive | –
CCC(Sc1nc(-c2ccccc2)[nH]c1S(=O)(=O)c1ccc(C)cc1)C(=O)O (stereo not given) | inconclusive: 1.5% [signal inhibitor] | –
Cc1cc(=O)n(Cc2ccc(F)cc2Cl)c2c1c(C)nn2C | inactive | –
Cc1cc(C)cc(OC(=O)c2cc(-c3ccc(Cl)cc3)on2)c1 | inactive | –
CCCCn1c(=S)[nH]c2c(oc3ccc(Cl)cc32)c1=O | inconclusive: 7.78% [signal inhibitor] | –
COc1ccc(N2CCN(C(=O)C3CCN(S(=O)(=O)c4cccc5nonc45)CC3)CC2)cc1 | inactive | –
O=S(=O)(c1ccc(F)cc1)N1CN(Cc2ccco2)c2nc3ccccc3nc21 | – | inconclusive: 25.1 µM [signal inhibitor, partial curve]
COc1ccc(NC(=O)Cn2c(=O)c3cccn3c3ccccc32)cc1Cl | inconclusive: 0.763% [signal inhibitor] | –
COc1cccc2sc(NC(=O)c3ccc(S(=O)(=O)N4CCC(C)CC4)cc3)nc12 | inconclusive: 3.93% [signal inhibitor] | –
COc1ccc(C)cc1NC(=O)Nc1cc(C(=O)NCc2ccc(C)cc2)ccc1N1CCCC1 | inconclusive: -0.0867% [signal inhibitor] | –
CC1CCN(c2nc(-c3ccncc3)nc3ccccc23)CC1 | inconclusive: -0.809% [signal inhibitor] | –
COc1ccc(-c2nc3sc(CCNC(=O)Cc4ccc(F)cc4)c(C)n3n2)cc1 | inconclusive: -2.27% [signal inhibitor] | –
CCOc1ccc(CNCc2c(C(=O)O)c(C)n(Cc3ccc(C)cc3)c2C)cc1 | inconclusive: -0.487% [signal inhibitor] | –
CCOc1ccccc1OCCCCn1c(-c2ccc(Cl)cc2)nc2ccccc2c1=O | – | inconclusive: 31.6 µM [signal inhibitor]
CCSc1nc2nc(C)cc(C)n2n1 | inactive | –
O=C(Nc1ccc(N2CCN(c3ccc(O)cc3)CC2)cc1)Oc1ccccc1 | inactive | –
COc1cc(Cl)c(NC(=O)CCc2nc3cccnc3n2-c2ccccc2)c(OC)c1 | inconclusive: 0.714% [signal inhibitor] | –
O=C(CSc1nc2cc3ccccc3cc2[nH]1)Nc1ccc(F)cc1 | inconclusive: 18.2% [signal inhibitor] | –
CC1=C(C(=O)Nc2ccc(Cl)cc2)C(c2cccs2)n2nc(SCc3cccc(C)c3)nc2N1 (stereo not given) | inconclusive: -1.1% [signal inhibitor] | –
Cc1ccc(NC(=O)c2cnc(SCC(=O)N3CCCc4ccccc43)n(C)c2=O)cc1 | – | inconclusive: 15.8 µM [signal inhibitor, partial curve]
CSc1nc(NC(C)C)nc(N2CCOCC2)n1 | inactive | –
CC(C)(C)OC(=O)N1CCC(c2c(C(=O)N3CCN(c4ccccc4F)CC3)cnn2-c2ccccc2Cl)CC1 | inconclusive: 3.24% [signal inhibitor] | –
